The supplement of paper PMC7826260
The list shows a part of the results. One pool of 16,384 single-stranded DNAs met each Rep nickase domain in vitro (1 h at 37 °C, 3 µM enzyme); the outer parts of the 90-letter strands are left off. Numbers give uncut DNA relative to the enzyme-free pool, as log2; the lower, the more was cut; hits are not called. Counts are relative to all reads, so uncut sequences can rise above 0 when many others are cut.

Experiments:
Assay in all cases: uncleaved DNA left, log2 of reads against the no-enzyme library (log2 ratio); higher = less cleavage (more negative = more Rep cleavage of the k-mer); sequences stand for … in CTCGTCCG…ACCGGAGA
[1] = test system: T1, Rep nickase domain of Muscovy duck circovirus
T1 sequence (protein, residues 1-111, tag omitted): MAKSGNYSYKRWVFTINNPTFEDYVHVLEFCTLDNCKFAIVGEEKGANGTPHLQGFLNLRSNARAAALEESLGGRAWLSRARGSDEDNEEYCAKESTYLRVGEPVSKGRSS
Method: (§1)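 A pool of 90-nt single-stranded DNAs with seven random bases just before the constant AC of the nick site (name = the seven bases) was cut by 3 µM recombinant His6-SUMO-tagged Rep nickase domain (300 nM DNA, 50 mM HEPES pH 8.0, 50 mM NaCl, 1 mM MnCl2, 1 h, 37 °C, three replicates). Uncut DNA was amplified and sequenced.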

[2] = test system: T2, Rep nickase domain of banana bunchy top virus
T2 sequence (protein, residues 1-94, tag omitted): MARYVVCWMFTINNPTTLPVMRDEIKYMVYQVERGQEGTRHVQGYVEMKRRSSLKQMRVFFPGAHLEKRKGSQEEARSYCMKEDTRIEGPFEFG
Method: as §1

[3] = test system: T3, Rep nickase domain of cabbage leaf curl virus
T3 sequence (protein, residues 1-116, tag omitted): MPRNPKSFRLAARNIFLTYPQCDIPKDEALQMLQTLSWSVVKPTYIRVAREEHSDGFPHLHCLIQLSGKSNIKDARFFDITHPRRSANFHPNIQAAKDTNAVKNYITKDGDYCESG
Method: as §1

[4] = test system: T4, Rep nickase domain of chickpea chlorotic dwarf virus
T4 sequence (protein, residues 1-124, tag omitted): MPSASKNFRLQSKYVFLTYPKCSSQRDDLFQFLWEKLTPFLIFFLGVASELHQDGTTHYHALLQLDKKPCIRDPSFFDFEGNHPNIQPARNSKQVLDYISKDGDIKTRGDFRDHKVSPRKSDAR
Method: as §1

[5] = test system: T5, Rep nickase domain of faba bean necrotic yellows virus
T5 sequence (protein, residues 1-98, tag omitted): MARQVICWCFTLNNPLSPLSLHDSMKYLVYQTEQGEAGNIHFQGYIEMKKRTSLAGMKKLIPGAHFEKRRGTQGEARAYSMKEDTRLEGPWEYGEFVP
Method: as §1

[6] = test system: T6, Rep nickase domain of maize striate mosaic virus
T6 sequence (protein, residues 1-117, tag omitted): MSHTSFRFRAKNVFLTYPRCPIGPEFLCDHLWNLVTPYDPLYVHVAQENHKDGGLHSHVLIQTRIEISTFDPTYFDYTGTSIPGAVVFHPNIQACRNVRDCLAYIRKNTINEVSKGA
Method: as §1

[7] = test system: T7, Rep nickase domain of porcine circovirus 2
T7 sequence (protein, residues 2-116, tag omitted): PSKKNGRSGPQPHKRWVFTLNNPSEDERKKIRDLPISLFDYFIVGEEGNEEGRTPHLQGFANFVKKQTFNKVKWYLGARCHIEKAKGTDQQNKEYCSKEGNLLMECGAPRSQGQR
Method: as §1

[8] = test system: T8, Rep nickase domain of tomato golden mosaic virus
T8 sequence (protein, residues 1-124, tag omitted): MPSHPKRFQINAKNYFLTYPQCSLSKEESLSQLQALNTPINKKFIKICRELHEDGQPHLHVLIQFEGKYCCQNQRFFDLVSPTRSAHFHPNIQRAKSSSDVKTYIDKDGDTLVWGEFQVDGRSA
Method: as §1

[9] = test system: T9, Rep nickase domain of tomato yellow leaf curl virus
T9 sequence (protein, residues 1-136, tag omitted): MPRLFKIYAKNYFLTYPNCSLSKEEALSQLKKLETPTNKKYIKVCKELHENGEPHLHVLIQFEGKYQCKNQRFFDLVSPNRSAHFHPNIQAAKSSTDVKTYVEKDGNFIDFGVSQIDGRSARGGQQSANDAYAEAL
Method: as §1

[10] = test system: T10, Rep nickase domain of wheat dwarf virus
T10 sequence (protein, residues 1-137, tag omitted): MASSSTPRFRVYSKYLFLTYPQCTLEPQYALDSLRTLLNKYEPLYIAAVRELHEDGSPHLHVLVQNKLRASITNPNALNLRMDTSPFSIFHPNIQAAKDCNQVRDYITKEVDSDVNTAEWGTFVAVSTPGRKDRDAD
Method: as §1

Sequence	uncleaved DNA left (log2) [1]	uncleaved DNA left (log2) [2]	uncleaved DNA left (log2) [3]	uncleaved DNA left (log2) [4]	uncleaved DNA left (log2) [5]	uncleaved DNA left (log2) [6]	uncleaved DNA left (log2) [7]	uncleaved DNA left (log2) [8]	uncleaved DNA left (log2) [9]	uncleaved DNA left (log2) [10]
AATGCGG	0.00528	0.0955	-0.182	-0.284	0.0893	-0.498	0.209	0.124	0.145	0.108
ATCGTTG	0.0194	-0.0117	-0.324	-0.368	-0.0943	-1.01	0.0886	-0.0145	0.0254	-0.108
AATGACC	0.0317	-0.0238	0.0495	0.626	0.00875	0.916	0.122	0.0833	-0.0556	0.0205
GCGTCTA	0.0338	-0.0447	0.0218	0.222	0.0716	0.782	0.0892	0.163	0.0566	0.221
GTTTATT	-2.57	-0.362	0.243	0.403	-0.0316	1.65	-2.66	0.0238	0.0996	0.0168
TAAGTGT	0.0936	-0.0539	-3.02	-2.11	-0.027	-0.131	-0.0577	-0.379	-0.101	-0.831
GAGTGTC	0.129	0.148	0.346	0.679	0.0382	0.872	-1.92	0.0876	0.158	0.0641
TGACCCC	0.0717	0.0611	0.732	1.41	0.0673	1.7	0.0578	0.0522	0.0889	0.173
ATAAGGA	-0.0118	0.0102	-0.181	0.218	0.061	-0.186	0.129	0.168	-0.00168	-0.000703
CTTATCG	-0.0606	-0.0193	-0.859	-0.484	0.0174	-1.03	0.0688	-0.0814	-0.0402	-0.195
TGACATT	0.222	0.185	0.889	1.98	0.158	2.31	0.126	-0.0123	0.135	0.274
TGGAAAG	0.0819	-0.0845	-0.424	-0.152	0.0622	-0.857	0.164	-0.0432	0.1	-0.0884
GATGCTG	-0.164	-0.15	0.0972	1.2	-0.0258	1.26	0.106	-0.0516	-0.175	-0.0577
TACAGCC	0.011	0.0624	-0.225	-0.839	0.0663	-0.857	0.19	-0.0166	0.11	0.0887
AACACTG	-0.0357	0.012	0.0326	0.642	0.017	1.11	0.0568	0.0633	-0.0541	0.0622
ATAAAGC	-0.00836	0.00153	-0.236	-0.469	0.00869	-1.24	0.161	0.0376	0.0516	-0.0114
AGGGGGC	0.104	0.0242	0.605	1.14	-0.0648	1.25	0.253	0.0553	-0.0288	-0.0382
TTAACTC	-0.0523	0.0155	-0.083	-1.46	-0.102	-0.447	-0.00602	-0.047	0.0223	-0.000175
TCGCGGT	-0.0286	-0.0712	-0.166	-0.271	-0.175	-0.288	-0.0887	0.0118	-0.0408	-0.0549
TCGTAGC	-0.0419	-0.0987	-0.0513	-0.26	0.0902	-0.979	0.0971	-0.0481	0.0814	-0.0418
CTCTGTC	0.0968	-0.0528	0.0019	-0.0531	0.08	-0.626	0.121	-0.0106	0.198	0.214
GCGCCCA	-0.0168	-0.0481	0.0163	-0.0529	-0.152	0.173	-0.196	-0.00604	0.0336	-0.0481
AGGTTTC	0.0465	-0.0668	0.127	0.143	-0.0284	0.181	0.0175	-0.0502	-0.025	0.00189
TGGGGCT	0.156	0.0996	0.851	1.77	0.0321	2.23	0.307	-0.0197	0.014	0.103
GCTGAGG	-0.0739	-0.0354	0.26	0.868	0.038	0.341	0.132	-0.0225	-0.0611	-0.0467
AGATACG	-0.0321	-0.0186	-0.872	-0.302	0.0588	-1.14	0.248	-0.0682	-0.00377	0.0132
GTGACGA	0.0353	0.126	0.641	1.69	-0.0655	1.97	0.159	0.0141	0.0564	0.0848
TCATCAC	0.0427	0.0135	0.0565	-0.205	0.0554	-0.608	0.0863	-0.0434	0.0574	-0.00362
TTTCTAC	-0.467	-0.0291	0.0676	-1.53	-0.0548	-0.0395	-0.227	0.0251	-0.0928	-0.042
